The values below come from PubChem BioAssay (NCI).

Several values for one entry are separate records, joined by “and”; a condition that tells them apart may be missing. Equal entries are not always repeated.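 Five concentrations, 48 hours, 96-well plates. The concentration for 50% growth inhibition is given as GI50. TGI marks complete inhibition of growth.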

The test system of this test is NCI-H322M lung. The experiment in a line: DTP human tumour cell line panel, 48 h.

On to `CCN(CC)CCNC(=O)c1cc2cc(NC(=O)c3cc4cc([N+](=O)[O-])ccc4[nH]3)ccc2[nH]1`, for which the TGI – broadly, the concentration at which net growth stops – was determined as 12.4 µM.

Consider `Cn1c(=O)c2c(nc3n2CC(C(=O)O)N3)n(C)c1=O` (stereo not given), for which the TGI was more than 100 µM.

In the case of `O=S(=O)(N/N=C/c1cccc(/C=N/NS(=O)(=O)c2ccccc2)c1)c1ccccc1`, the TGI was more than 100 µM.

`O=C(O)c1nc2nc(Cl)c(Cl)nc2[nH]1`: the TGI was more than 100 µM.

`O=C(Nc1ccccc1-c1nn(C(=S)Nc2ccccc2)c(=S)n(C(=S)Nc2ccccc2)c1=O)C(F)(F)F`: the TGI was more than 85.9 µM.

For `c1ccc(Sc2ncnc3ccccc23)cc1`, the GI50 (in general, the concentration that inhibits growth by half) is 17.3 µM and the TGI is 33.2 µM.

In the case of `CCOP(=O)(OCC)C(F)(F)c1ccc(CC(NC(=O)OC(C)(C)C)C(=O)O)cc1` (stereo not given), the TGI is more than 10 µM.

Take `O=C1C=CC(=O)c2nc3c(cc21)CCC3`: the TGI is more than 100 µM.

Take `CCCOc1cc2ccccc2cc1C(=O)Nc1nc(N)c2c(ccc3nccc32)[nH]1`: the GI50 is 1.06 µM and the TGI worked out at 2.6 µM.

Turning to `O=C(Oc1ccc(Cl)cc1)c1ccccc1Nc1ccnc(C(F)(F)F)c1`, the GI50 is 17.4 µM and the TGI was determined as 43.6 µM.

`C#CCn1c(=O)c2ccccc2n(CC#C)c1=O` returned a TGI of more than 10 µM.

Take `CCN1C(=O)N(c2ccccc2)C2NC(=S)N(/N=C/C=C/c3ccccc3OC)C21` (stereo not given): the GI50 was 0.253 µM and the TGI was more than 100 µM.

As to `N#Cc1c[nH]n2c(N=Nc3ccc(Cl)cc3)c(O)nc12`, the GI50 was 23.5 µM and the TGI was determined as 91 µM.

Take `CC(=O)N(C(=O)CC(=O)N1N=C(c2ccccc2)C(N=Nc2ccccc2[N+](=O)[O-])C1=O)c1ccc(Cl)cc1` (stereo not given): the TGI is more than 10 µM.

`CC(=O)Oc1cccc2c1C(=O)CCCC2` had a TGI of more than 100 µM.

In the case of `O=C1CCCCN1c1ccccc1C#C/C=C\C#Cc1ccccc1C(F)(F)F`, the GI50 is 6.9 µM and the TGI is more than 50 µM.

For `Cc1ccc(-n2c3nc(=O)[nH]c(=O)c-3cc3cc([N+](=O)[O-])ccc32)cc1`, the GI50 was 38.2 µM and the TGI worked out at 61.4 µM.

`COc1ccc(C(=C2C=CC=C2)c2ccc(OC)cc2)cc1`: the TGI is more than 100 µM.

For the molecule `Cc1cc(C)nc(NS(=O)(=O)c2ccc(NC(=O)c3ccc4nc5ccccc5c(Nc5ccc(S(N)(=O)=O)cc5)c4c3)cc2)n1`, the TGI was more than 100 µM.

For `C[C@]12CCC3c4ccc(O)cc4CCC3C1CC[C@@]2(O)CNC(=O)/C=C/c1ccc(O)c(O)c1` (stereo not given in full), the GI50 was 8.14 µM and the TGI stood at 24.7 µM.

On to `Nc1nc(-c2ccccc2)nc2oc(-c3cccs3)nc12`, for which the TGI was more than 100 µM.

For the molecule `Nc1n[nH]c2cccc(C#Cc3cccc(C(=O)Nc4ccc(CN5CCOCC5)c(C(F)(F)F)c4)c3)c12`, the GI50 is 2.96 µM and the TGI was 10.2 µM.

Take `O=C1CCCCC1CN1CCCCC1` (stereo not given): the total growth inhibition concentration (TGI) is more than 100 µM.

`O=C(NCc1ccccc1)c1n[nH][nH]c1=O` showed a TGI of more than 100 µM.

The molecule `CCN(CC)C(=S)N/N=C/c1cc([N+](=O)[O-])ccc1O` had a total growth inhibition concentration (TGI) of 77.6 µM.

With `COC(=O)C(CCCN1C(=O)c2ccccc2C1=O)C(=O)OC`, the TGI was more than 100 µM.

Molecule `Cc1cc(-c2nc3ccc(F)cc3s2)ccc1NC(=O)[C@H](C)N` gave a TGI of 21.9 µM.

As for `CC(C)(C)c1cc2c(O)c3cccc4c(=O)c5cccc6c5-c(c34)c2c(c1)c6=O`, the TGI was more than 100 µM.

In the case of `[N-]=[N+]=NC(c1ccccc1)(c1ccccc1)c1ccccc1`, the TGI turned out to be 35.2 µM.

In turn, `Cc1cccc(Cn2c3c(c4cc(O)ccc42)C(=O)c2ccccc2C3=O)c1` had a TGI of more than 100 µM.

In turn, `CC1(C)O[C@H]2OC(CO[Si](C)(C)C(C)(C)C)C(N=[N+]=[N-])[C@H]2O1` (stereo not given in full) came in with a TGI of 38.8 µM.

In turn, `CCOC(=O)c1c(CN2CCCC2)n(-c2ccccc2)c2cc(Br)c(O)cc12` displayed a TGI of 74.1 µM.

As for `N#CC(C#N)=C/C=C(\Sc1nc2ccccc2s1)c1ccc(Cl)cc1`, the GI50 is 18.8 µM and the TGI came out at 38.4 µM.

For `Cc1csc(-c2nnc(Nc3ccc(Oc4ncccc4-c4ccnc(N)n4)cc3)c3ccccc23)c1`, the GI50 was 5.86 µM and the TGI was more than 100 µM.

With `Nc1cc(NN=C(c2ccc(O)cc2)c2ccc(O)cc2)c([N+](=O)[O-])cc1[N+](=O)[O-]`, the GI50 is 2.44 µM and the TGI worked out at 7.49 µM.

Molecule `c1ccc2c3[nH]c(c2c1)=Nc1ccc(cc1)-c1nc2cc(ccc2o1)N=c1[nH]c(c2ccccc12)=Nc1ccc2nc(oc2c1)-c1ccc(cc1)N=3` returned a TGI of more than 100 µM.

Take `COc1ccc(C2[C@@H](c3ccccc3)C(=O)N2c2cc(OC)c(OC)c(OC)c2)cc1F` (stereo not given in full): the GI50 is 0.0687 µM and the TGI is more than 100 µM.

`CN(C)CC1CC/C(=C\c2ccc(O)cc2)C1=O` (stereo not given) registered a TGI of 30.6 µM.

For `CC(C)[C@@H]1C=C2CC[C@H]3[C@](C)(CN)CCC[C@]3(C)[C@H]2CC1`, the GI50 was 1.98 µM and the TGI was 4.13 µM.

Molecule `N=c1nnc2ccc(Cl)cc2n1O` gave a TGI of more than 100 µM.

Take `NC(=O)C(=Cn1c(=S)[nH]c2ccc([N+](=O)[O-])cc21)C(N)=O`: the TGI was more than 100 µM.

Molecule `Cc1ccccc1C(=N)c1ccccc1Cc1cccc2ccccc12` registered a TGI of more than 100 µM.

Regarding `S=C(N/N=C(/c1ccccc1)c1ccccn1)N(Cc1ccccn1)Cc1ccccn1`, the TGI is 2.15 µM.

Consider `NC1(c2cc3ccccc3s2)CCCC1`, for which the TGI is more than 100 µM.

`CCCCCCCCCCn1cc[n+](C)c1`: the GI50 is 16.8 µM and the concentration for total growth inhibition (TGI) was more than 96.4 µM.

`CCCCCC1=CC(=O)C1(Cl)Cl` returned a TGI of 27.6 µM.

In the case of `CCN(C(=O)N1CCN(c2cc3c(cc2F)c(=O)c(C(=O)O)cn3C2CC2)CC1)c1nc(-c2ccc(Cl)cc2)cs1`, the GI50 was 1.08 µM and the TGI is more than 26.9 µM.

Molecule `COC(=O)C1CC(C=[N+](C)C)=C(SC)N1C(=O)OCc1ccccc1` (stereo not given) showed a TGI of more than 100 µM.

In turn, `N#CC(NCc1cccc(CNC(C#N)c2ccccc2)c1)c1ccccc1` (stereo not given) gave a total growth inhibition concentration (TGI) of more than 100 µM.

Take `C=CC1(CC/C(=C\[N+](=O)[O-])c2ccc(OC)c(OC)c2)OCC(C)(C)CO1`: the TGI amounted to 43.1 µM.

In turn, `O=C(/C=C/c1ccccc1)C[C@@H](O)C[C@@H]1CC=CC(=O)O1` had a TGI of 27.1 µM.

On to `Cc1nnc(NC(=O)c2nc(S(=O)(=O)Cc3ccc(F)cc3)ncc2Cl)s1`, for which the GI50 was 17.7 µM and the TGI worked out at 33.4 µM.

The molecule `O=C(OCc1ccccc1)N1CCNCCN(C(=O)OCc2ccccc2)CCNCC1` returned a TGI of 49.2 µM.

Take `CCCCCCCCCCCCC(O)c1ccc(C#CCCCCCCCCCO)o1` (stereo not given): the GI50 was 21 µM and the concentration for total growth inhibition (TGI) came to 37.9 µM.

For `CC1=C2C(=C[C@@](C)(CO)[C@@H]2O)C(=O)[C@](C)(O)C12CC2`, the total growth inhibition concentration (TGI) is 0.0542 µM and 0.0632 µM.

Molecule `CCCCOC(=O)Nc1ccc(S(=O)(=O)Nc2ccccc2Cl)cc1` displayed a TGI of 71.3 µM.

For `COc1cccc(Nc2nc(-c3cccs3)nc3cc(OC)c(OC)cc23)c1`, the TGI was more than 100 µM.

In the case of `CC1(C)OC1COc1c2occc2cc2ccc(=O)oc12` (stereo not given), the TGI was more than 100 µM.

As for `O=C1CCC2(c3ccc(Cl)cc3)Nc3ccncc3N12` (stereo not given), the TGI was more than 10 µM.

The molecule `Cc1oc2c(cc(O)c3cc(O)ccc32)c2cccc1-2` yielded a TGI of more than 100 µM.

With `NC(N)=Nc1ccc(CC(N)NCC(=O)O)cc1` (stereo not given), the TGI was more than 25 µM.

Consider `COc1ccc(-c2cn[nH]c2-c2cc(OC)c(OC)c(OC)c2)cc1`, for which the GI50 is 0.0553 µM and the TGI was more than 44.6 µM.

As to `CCC(=O)NC(Nc1cc(C)on1)(C(F)(F)F)C(F)(F)F`, the TGI was more than 100 µM.

On to `O=c1[nH]c(=S)[nH]c2c1C(c1ccc([N+](=O)[O-])cc1)c1c([nH]c(=S)[nH]c1=O)O2`, for which the total growth inhibition concentration (TGI) is more than 100 µM.

As to `CCN(Cc1ccc(F)cc1)c1cc(Cl)c(CO)c(Cl)c1`, the GI50 was 15.9 µM and the TGI was 30.6 µM.

Turning to `CN1CC[C@@H](NC(=O)Nc2ccc(C#N)cc2)C[C@@H]1c1nc2ccccc2[nH]1`, the GI50 is more than 100 µM and the TGI is more than 100 µM.

For the molecule `C[C@]12CC[C@H](O)CC1=CC[C@@H]1[C@@H]2CC[C@]2(C)C(=N/N)/C(=N\O)C[C@@H]12`, the TGI is more than 100 µM.

Molecule `CC(=O)OCCOCNC(=S)N/N=C(\C)c1cnccn1` gave a TGI of more than 100 µM.

`Nc1nccc(-c2c[nH]c3cc(Br)ccc23)n1` yielded a TGI of 60.9 µM.

`Nc1ccccc1SC(CC(=O)c1ccccc1)c1cccc([N+](=O)[O-])c1` (stereo not given): the GI50 was 16.7 µM and the concentration for total growth inhibition (TGI) worked out at 31.9 µM.

Molecule `N#CC(Cc1ccccc1)N(CCC1=CCCCC1)C(c1ccccc1)c1ccccc1` (stereo not given) gave a TGI of more than 100 µM.

For the molecule `Nc1n[nH]c2cc(F)c([C@@H]3Nc4ccc5[nH]ncc5c4[C@H]4C5CCC(C5)[C@@H]34)cc12` (stereo not given in full), the GI50 is 0.365 µM and the TGI was more than 50 µM.

`O=S(=O)(c1ccccc1)c1cccc2c1NCCC2` registered a TGI of more than 100 µM.

Take `COc1ccc2[nH]cc(/C=C(/C)c3ccncc3)c2c1`: the GI50 is 14 µM and the TGI is more than 100 µM.

The molecule `CN(C)CCNS(=O)(=O)c1ccc(N)cc1` returned a TGI of more than 100 µM.

In turn, `O=C(/C=C/c1ccc2c(c1)OCO2)c1ccc(O)cc1` yielded a TGI of 32.1 µM.

For the molecule `O=C(C1OC1c1ccc(Br)cc1O)C12CC3CC(CC(C3)C1)C2` (stereo not given), the TGI is more than 100 µM.

`CCOC(=S)SCC(=O)O` showed a TGI of more than 100 µM.

As for `Nc1ncnc2c1[nH]c(=O)n2-c1ccccc1`, the TGI is more than 100 µM.

Take `COc1cccc(-c2nc(-c3ccc(NC(=O)OC(C)C)cc3)[nH]c2-c2ccnc(Br)c2)c1`: the GI50 is 2.89 µM and the TGI was more than 100 µM.

Take `COC(=O)CC(c1ccccc1)C1(c2ccccc2)SCCS1` (stereo not given): the TGI is more than 290 µM.

Turning to `c1ccc2c(c1)Cn1c-2nc2ccccc21`, the TGI was more than 100 µM.

Consider `COc1cc(-c2ccc3cc(OC)c(OC)c(OC)c3c2)cc(OC)c1OC`, for which the GI50 was more than 100 µM and the TGI was more than 100 µM.

`COc1ncc(/C=C2\OC(=O)c3ccccc32)c(OC)n1` gave a TGI of more than 100 µM.

On to `O=C(/C(=C/c1ccc([N+](=O)[O-])cc1)SCc1ccccc1)c1ccc(Cl)cc1`, for which the GI50 was 13.3 µM and the TGI turned out to be 26.5 µM.

Consider `CC(=O)Nc1nc(NC(C)=O)c2[nH]c(CO)nc2n1`, for which the TGI is more than 100 µM.

In turn, `Cc1ccc(/C=C/C(=O)c2cccc3ccccc23)cc1` displayed a TGI of 32 µM.

Molecule `O=CNc1ccc2c(c1)C(=O)c1ccccc1-2` showed a TGI of more than 100 µM.
